# Source: the supplement of paper PMC10338343
# ± gives the standard deviation. Whole data set: some 3,000 sequences, median “pre-steady-state target cleavage rate” near 0.0079, cut for the highest 2% near 0.2. This is a selection; strong and weak results do not stand in their true shares.
# System: MILI (PIWIL2) piRISC loaded with piRNA #2 (26 nt)
# Test: pre-steady-state target cleavage rate (min^-1); MIWI and MILI are mouse PIWI proteins and EfPiwi is from a freshwater sponge; tags in brackets are library labels; higher = faster piRNA-guided slicing of the target
# Conditions: guide: piRNA #2 5'p-UUAGGUAACCCAGUAGAUCCAGAGGA; auxiliary factor: 500 nM mouse GTSF1
# How it was run: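 Cleave-'n-Seq reactions paired 0.1 nM transcribed, DNA-blocked target RNA library with 1 nM active affinity-purified piRISC holding one synthetic guide, plus or minus 500 nM GTSF1 partner protein, in HEPES–potassium acetate buffer at 33 °C for 0–8 or 0–960 min. After sequencing of uncleaved targets and normalisation to depth and weakly complementary targets, the pre-steady-state cleavage rate was taken from a burst-and-steady-state fit. Three trials were pooled, and k3 was capped at 0.0001 min^-1.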
row,Sequence,pre-steady-state target cleavage rate
1,CUUAUCCUCUGGAUCUACUGGGUUACCUAAA,0.122 ± 0.025
2,CUUAACGUCUGGAUCUACUGGGUUACCUAA,0.0954 ± 0.014
3,CUUAAGGACUGGAUCUAAUGGGUUACCUAA,0.0396 ± 0.012
4,CUUAAGGAGUGGAUCUAGUGGGUUACCAAA,0.00587 ± 0.0039
5,CUUAUCCUCUGGAUCUACUGGGUUGACCUAA,0.132 ± 0.031
6,CUUAUCCCUGGAUCUACUGGGUUACCUAA,0.12 ± 0.029
7,CUUAUCCUCUGCUACUACUGGGUUACCUAA,0.0739 ± 0.016
8,CUUAUCAUCUGGAUCUACUGGGUUACCUAA,0.138 ± 0.019
9,CUUAUCCUCUGGAUCUACUGGGUUACCUAG [g2:g26:cont:t1G],0.168 ± 0.036
10,CUUAUCGUCUGGAUCUACUGGGUUACCAAA,0.0225 ± 0.0083
11,CUUAAGGAGUGGAUCUACUGGGUUAUCUAA,0.0175 ± 0.0069
12,CUUAUCCUCUGGAUCUACUGGGUUAGCUAA,0.129 ± 0.025
13,CUUAAGGUGUGGAUGUACUGGGUUACCUAA,0.031 ± 0.021
14,CUUAAGGAGAGGAUCUACUGGGUUACCAA,0.00467 ± 0.0033
15,CUUAACCUCUGGAUCUACUGGGUUACCAA,0.165 ± 0.04
16,CUUAAGGACUGGAUCUAGUGGGUUUCCUAA,0.0193 ± 0.0062
17,CUUAAGGUCUGGAUCUACUGGGUUACCUA,0.11 ± 0.018
18,CUUAAGGUCUGCAUCUUCUGGGUUACCUAA,0.0399 ± 0.012
19,CUUAAGGUCUGGAUCUACUGGGUUAACCUAA,0.0549 ± 0.013
20,CUUAAGGACACGAUCUACUGGGUUACCUAA,0.0133 ± 0.0059
21,CUUAACCACUGGAUCUACAGGGUUACCUAA,0.0934 ± 0.012
22,CUUAAGGAGAGGAUCUACUGGGUUACCAUAA,0.00451 ± 0.0042
23,CUUAACCUCUGGAUCUACUGGGUAACCUUA,0.114 ± 0.029
24,CUUAAGGAGUGGAUCUACUAGGUUACCUAA,0.0262 ± 0.009
25,CUUAAGGUCAGGAUGUACUGGGUUACCUAA,0.0187 ± 0.013

row,Sequence,pre-steady-state target cleavage rate
1,CUUAUCCUCUGGAUCAUGUGGGUUACCUAA,0.00734 ± 0.0034
2,CUUAUCCUCUGGAACAACUGGGUUACCUAA,0.0803 ± 0.021
3,CUUAAGGUCUGGAUCAAGUGGGUUACCUAA,0.0291 ± 0.0075
4,CUUAAGGACUGGAACUACAGGGUUACCUAA,0.0132 ± 0.01
5,CUUAAGGAGUGGAUCUACUGGGUUACCUAA [g2:g21:cont:t1A],0.0574 ± 0.015
6,CUUAAGAUCUGGAUCUACUGGGUUACCUAA,0.0959 ± 0.015
7,CUUAAGCUCUUGGAUCUACUGGGUUACCUAA,0.143 ± 0.045
8,CUUAACCUCUGGAUCUAAUGGGUUACCUAA,0.0565 ± 0.0097
9,CUUAAGGAGACCUAGAUGUUGGGUUACCUAA,< 0.0001
10,CUUAAGGAGUGGAUCUACGGGGUUACCUAA,0.0548 ± 0.01
11,CUUAAGGUCUGGAUCUACUGCGUUACCAAA,0.00469 ± 0.0031
12,CUUAACCUCUCGAUCUAGUGGGUUACCUAA,0.132 ± 0.023
13,CUUAUCCUCUGGAUCAUCUGGGUUACCUAA,0.111 ± 0.036
14,CUUAAGCUCUGCAUCUACAGGGUUACCUAA,0.0554 ± 0.0093
15,CUUAAGGACUGGAUCUUCUGGGUUACCUAA,0.0255 ± 0.016
16,CUUAAGCUUCUGGAUCUACUGGGUUACCUAA,0.0747 ± 0.019
17,CUUAAGGACUGGAUCUACUGGGUUACCUAA [g2:g22:cont:t1A],0.0428 ± 0.02
18,CUUAAGGACUGGACUCUACUGGGUUACCUAA,0.00833 ± 0.0081
19,CUUAUCCUCUGGAUCUACGGGGUUACCUAA,0.088 ± 0.012
20,CUUAUCCUCUGGAUCUACUGGGUUAGGUAA,0.00735 ± 0.004
21,CUUAUCCUCUGGAUCAACUGCGUUACCUAA,0.00726 ± 0.0033
22,CUUAAGGAGUGGAUCUACUGGGUUGCCUAA,0.0244 ± 0.011
23,CUUAAGGUCUGGAUGCUACUGGGUUACCUAA,0.0643 ± 0.019
24,CUUAAGGAGAGGAUCUACUGGGUUACCAAA,0.00579 ± 0.004
25,CUUAACCUCUGGAUCUACUGCGUUACCUAA,0.018 ± 0.0064

row,Sequence,pre-steady-state target cleavage rate
1,CUUAAGCUCUGGAUCUUCUGGGAUACCUAA,0.0206 ± 0.0087
2,CUUAAGCUCUCGAUCUACUGGGUAACCUAA,0.04 ± 0.011
3,CUUAUCCUCUCGAUCUACUGCGUUACCUAA,0.0252 ± 0.0058
4,CUUAUCCUCUGGAUCUUACUGGGUUACCUAA,0.00479 ± 0.004
5,CUUAAGGACUGGAUUCUACUGGGUUACCUAA,0.0159 ± 0.011
6,CUUAAGGACAGGAUCUACUGGGUUACCUAA,0.0192 ± 0.013
7,CUUAAGGAGUGGAUCUACAGGGUUACCUAA,0.0767 ± 0.012
8,CUUAUGCUCUGGAUCUACUGGGUUAGCUAA,0.109 ± 0.019
9,CUUAACCUCUGCAUCUAGUGGGUUACCUAA,0.0558 ± 0.015
10,CUUAACCUCUGGAUCUAGAGGGUUACCUAA,0.0444 ± 0.013
11,CUUAUCCUCUGGAUCUACAGGGUUAGCUAA,0.0334 ± 0.0089
12,CUUAAGGUCUGGAUCUACUGGGUUACCUAA [g2:g23:cont:t1A],0.0846 ± 0.015
13,CUUAAGGAGUGGGUCUACUGGGUUACCUAA,0.0176 ± 0.0075
14,CUUAACCACUGGAUCUACUGCGUUACCUAA,0.0115 ± 0.0043
15,CUUAACCUCUGGAUCUACAGGGUUACGUAA,0.0359 ± 0.012
16,CUUAAGGACUGGAUCAACUGGGUUACCUUA,0.0141 ± 0.0089
17,CUUAAGGUCGUGGAUCUACUGGGUUACCUAA,0.0324 ± 0.018
18,CUUAAGGAGAGCAUCUACUGCGUUACCUAA,0.00313 ± 0.0027
19,CUUAAGCUCUGGAUCAAGUGGGUUACCUAA,0.0155 ± 0.0044
20,CUUAAGGACUGGAUCUACUGGGUUAACCUAA,0.013 ± 0.012
21,CUUAACCUCUGGAUCUACUGGGUUACCUUAA,0.0882 ± 0.022
22,CUUAAGCUCUGGAUCUACUGAGUUACCUAA,0.0312 ± 0.0091
23,CUUAAGGACUGGAUGUACUGGGUUAGCUAA,0.0136 ± 0.011
24,CUUAUCGUCUGGAUCUACUGGGUUACCUUA,0.0588 ± 0.013
25,CUUAUCGUCUGGAUCUACAGGGUUACCUAA,0.0634 ± 0.0087
